Screen size: about 110,000 compounds; about 230 (0.21%) showed an effect of 50% or more. The list shows a part of the results.
Target: DPAP1 (Plasmodium falciparum, UniProt Q8IIJ9)
Assay: primary screen, percent inhibition; read by cleavage of a fluorogenic dipeptide substrate; higher = more effect of the substance
Parameters: species or system P. falciparum D10 trophozoite lysates; single well
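Further: 30 min substrate incubation versus DMSO and 10 µM JCP410 controls.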

DPAP1, sequence (Q8IIJ9 whole entry, looked up): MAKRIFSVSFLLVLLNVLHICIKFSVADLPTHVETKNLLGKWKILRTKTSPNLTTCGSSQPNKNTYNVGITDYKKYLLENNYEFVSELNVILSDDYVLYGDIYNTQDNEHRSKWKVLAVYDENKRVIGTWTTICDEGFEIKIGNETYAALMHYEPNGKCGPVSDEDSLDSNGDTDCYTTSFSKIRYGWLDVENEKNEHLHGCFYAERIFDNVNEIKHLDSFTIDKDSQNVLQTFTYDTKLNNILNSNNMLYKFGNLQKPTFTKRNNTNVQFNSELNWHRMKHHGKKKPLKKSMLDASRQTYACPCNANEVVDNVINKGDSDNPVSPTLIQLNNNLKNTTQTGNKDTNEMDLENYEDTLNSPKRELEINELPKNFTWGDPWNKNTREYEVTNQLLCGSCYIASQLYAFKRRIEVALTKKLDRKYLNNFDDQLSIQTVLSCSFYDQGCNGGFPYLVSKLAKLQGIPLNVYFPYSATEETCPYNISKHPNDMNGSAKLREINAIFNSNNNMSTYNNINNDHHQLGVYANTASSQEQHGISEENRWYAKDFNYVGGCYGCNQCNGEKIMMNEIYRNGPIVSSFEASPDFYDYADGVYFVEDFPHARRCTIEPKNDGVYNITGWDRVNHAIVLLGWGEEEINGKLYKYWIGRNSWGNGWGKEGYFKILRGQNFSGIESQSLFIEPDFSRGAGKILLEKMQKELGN

SMILES | % Inhibition @ 10 uM [%]
C#CCOC(=O)CCCC(=O)Nc1ccc(Cl)cc1Cl | 1.63
O=C(CN1C(=O)c2cccc3cccc(c23)C1=O)NCC1CCCO1 (stereo not shown) | 19.7
Cc1cccc(C(=O)Nc2ccc(C)c(O)c2)c1 | 2.5
CCCCC(NS(=O)(=O)c1ccc(C)cc1)C(=O)O (stereo not shown) | -8.12
CC1(C)CC(=O)C2=C(C1)N(c1nc[nH]n1)C(N)=C(C#N)C2c1cccc(Cl)c1 (stereo not shown) | 5.48
CSc1ccc(/C=C2\C(=N)N3N=C(N4CCCCC4)SC3=NC2=O)cc1 | -1.66
CCCOc1ccc(C2C(C(=O)OC)=CN(CC3CCCO3)C=C2C(=O)OC)cc1 (stereo not shown) | -7.23
CC(C)C[C@H](NC(=O)c1ccc(NC(=O)OCc2ccccn2)cc1)C(=O)NCC#N | 0.744
Cc1c(C(=O)NCCN(C)C)oc2c1-c1nn(Cc3ccc(Cl)cc3)cc1CC2 | -9.32
COc1cccc(CN2CCN(Cc3ccc(F)cc3)CC2)c1 | 0.214
O=C(NCc1ccccc1Cl)C1CCC(CNS(=O)(=O)c2cccc3nsnc23)CC1 (stereo not shown) | -2.25
CC1CCC(C(=O)NC(C(=O)N2CCN(Cc3ccccc3)CC2)C(C)C)CC1 (stereo not shown) | -1.73
Cc1ccc(-c2csc(NC(=O)c3cc4ccccc4o3)n2)cc1 | 3.79
CCN(C)CCc1c[nH]c2ccccc12 | 0.76
CC1CCCC(NC(=O)CN2C(=O)CSc3ncccc32)C1C (stereo not shown) | -4.15
Cc1nc(C)c(-c2ccccc2)c(O)n1 | 6.52
CN(Cc1ccccc1)C(=O)Cn1ncc2c3ccccc3n(Cc3ccc(F)cc3)c2c1=O | -3.35
CCNC(=O)c1c(NC(=O)c2nc(SC)ncc2Cl)sc2c1CCCC2 | 2.19
CC(=O)N(CCN(Cc1ccccc1)C(C)=O)Cc1ccccc1 | 0.505
CCN1CCC(NCCCOC)CC1 | 3.19
COCCCn1c(CCC(=O)O)ccc1-c1ccc(C)cc1 | -6.64
CCN(CC)CCN(C)C1CCCCCCC1 | -9.93
Cc1ccc(S(=O)(=O)c2nnn3c2nc(N2CCOCC2)c2sccc23)cc1 | 2.72
N#Cc1ccc(-c2ccc(F)cc2)nc1SCC(=O)NC1CC1 | -7.4
COc1cc(C(=O)N2CCN(c3ccc(C)c(Cl)c3)CC2)cc(OC)c1OC | -4.52
O=C(CS(=O)(=O)c1ccccc1)N1CCCCCC1 | 5.42

SMILES | % Inhibition @ 10 uM [%]
Cn1c(=O)c(C(=O)NC(C)(C)C)c(O)c2ccccc21 | 7.16
CCc1nnc(NC(=O)c2ccc(OC)c(S(=O)(=O)N3CC(c4ccccc4)CC3=O)c2)s1 (stereo not shown) | 5.76
CCn1c(NCc2ccccc2F)nc2ccccc21 | -9.25
CCCCN1C(=O)c2ccc(F)cc2C1=O | -0.712
Cc1ccsc1CNC1C2CC3CC(C2)CC1C3 (stereo not shown) | -0.759
Cn1c(NCc2ccco2)nc2ccccc21 | -0.872
O=C(N/C(=C\c1ccco1)C(=O)N1CCCC1CO)c1ccccc1 (stereo not shown) | -2.8
Cc1c(C(=O)Nc2nccs2)oc2ccccc12 | -4.87
COCCN1C(=O)c2ccccc2C(C(=O)NCc2ccccc2OC)C1c1ccc(F)cc1 (stereo not shown) | 2.84
O=C1C2C3CCC(C3)C2C(=O)N1CNc1cccc(Cl)c1 (stereo not shown) | -3.49
CCCN(CCC)CC/N=c1/c(-c2ccccc2)c(O)c1=O | 4.36
COc1cc(C2C(C(=O)Nc3ccccn3)=C(C)Nc3nnnn32)ccc1OCc1ccccc1 (stereo not shown) | -2.13
CCOC(=O)N1CCC(N2CCSCC2)CC1 | -3.6
COc1ccc(N(CN2C(=O)c3cc(Cl)c(Cl)cc3C2=O)C(C)=O)cc1 | -2.98
COc1cccc(NC=C2C(=O)N(C)C(=O)N(C)C2=O)c1 | -6.69
CCCSc1nc(=O)c2c(n1C)NC(=O)CC2c1ccc(O)cc1OC (stereo not shown) | -4.71
Cc1ccc2c(c1)C1CN(C)CCC1N2C(=O)Nc1ccccc1 (stereo not shown) | 0.708
O=C(NCc1ccc(F)cc1)c1cc2ccc3cccnc3c2[nH]1 | -2.72
COc1cc(C(=O)NCCC(=O)NCCCN2CCCCC2)cc(OC)c1OC | 4.36
O=C1NC(=O)/C(=C/c2cc3c(cc2Br)OCO3)N1 | -3.75
NC(=O)CSc1nc(SCC(N)=O)c2c3c(sc2n1)CCCC3 | -3.05
Cc1nnc2c(NCC(C)c3ccccc3)nc3ccc(C(=O)c4ccccc4)cc3n12 (stereo not shown) | -6.29
Cc1nnc(C)n1/N=C\c1cccnc1 | 4.67
Cn1c(=O)c2c(ncn2CCOC2c3ccccc3CCc3ccccc32)n(C)c1=O | 1.89
Cc1ccccc1CSc1nc2cccnc2[nH]1 | 6.08
CN(CCC#N)C(=O)Cn1nc(Cc2ccncc2)c2ccccc2c1=O | 6.55

SMILES | % Inhibition @ 10 uM [%]
CC1=C(C(=O)OC(C)C)C(c2cccc(Cl)c2Cl)CC(=O)N1 (stereo not shown) | 1.76
CC(C)CNCc1noc2c1CSc1ccccc1-2 | 0.231
COc1ccc(-n2c(C)cc(C)nc2=O)cc1 | -1.63
CCC1CCCCN1CCCNC(=O)c1cc2c(-c3ccccc3F)nn(C)c2s1 (stereo not shown) | 2
O=[N+]([O-])c1ccc(N2CCN(C3C4CC5CC(C4)CC3C5)CC2)cc1 (stereo not shown) | -4.75
O=C(CSCc1ccc(C(=O)O)cc1)Nc1ccc2ccccc2c1 | 0.983
O=C(COc1ccc(Cl)cc1)NCc1nnc(SCC(=O)NC2CCCC2)o1 | -7.46
O=C(c1nnc(Cc2ccc(F)cc2Cl)o1)N1CCN(c2ccccn2)CC1 | -1.14
COc1ccc(-c2cc(C(F)(F)F)n3nc(C(=O)NC4CCCCC4)cc3n2)cc1 | -5.03
CCCCNC(=O)CCSc1ccc(C)cc1 | -2.98
COc1ccc(OC)c(CNCc2c(C(=O)O)[nH]c3cc(OC)ccc23)c1 | -1.53
Cc1oc(-c2ccc(Cl)cc2)nc1CS(=O)CC(=O)NCCc1ccc(Cl)cc1 (stereo not shown) | 2.37
Cc1nc2ccc(S(=O)(=O)NC(CC(C)C)C(=O)N3CCN(C4CCCCC4)CC3)cc2s1 (stereo not shown) | 2.12
CCOc1ccc(C(=O)Nc2ccc(N3CCOCC3)cc2)cc1 | -0.251
CC1NC(=O)NC1CCCCC(=O)O (stereo not shown) | 2.33
CCC(=O)Nc1ccc2c(c1)c1ccccc1n2CC | 0.632
NC(=O)c1c(NC(=O)c2ccc(S(=O)(=O)N3CCCCC3)cc2)sc2c1CCCC2 | -1.88
Cc1ccccc1Cn1c2ccccc2c2cnn(CC(=O)N3CCOCC3)c(=O)c21 | 4.95
CCC(=O)NS(=O)(=O)c1cccnc1Nc1cccc(Cl)c1Cl | -5.6
Cc1cc(-c2ccccc2)n2nc(C)c(-c3ccc(Cl)cc3)c2n1 | 0.0538
O=S(=O)(NC1CCCCCC1)c1ccc(F)cc1 | -8.75
NC(=O)c1sc2nccc(Nc3ccccc3)c2c1N | -4.23
CCOc1cccc(N2C(=O)CC(N3CCN(C45CC6CC(CC(C6)C4)C5)CC3)C2=O)c1 (stereo not shown) | -3.41
COc1ccccc1-n1cnc2cc(NS(=O)(=O)c3ccc(C)cc3)ccc21 | -6.25
CCC(C)NC(=O)c1csc2c1CCCC2 (stereo not shown) | -1.44
Cc1cc(C)cc(NC(=O)CN(Cc2ccccc2)S(=O)(=O)c2ccc(F)cc2)c1 | 3.53

SMILES | % Inhibition @ 10 uM [%]
CC(C)c1ccc(CN(CCCN(C)C)CCCN(C)C)cc1 | 2.7
COc1ccc(Br)cc1C1CC(=O)NC2=C1C(=O)CC(C)(C)C2 (stereo not shown) | -5.2
COCCCNC(=O)c1c(O)nc2c(c1O)CCCC2 | -0.458
Cc1nnc(N2CCC(C(=O)NC3CCC(C)CC3)CC2)c2nn(-c3ccccc3)c(C)c12 (stereo not shown) | 1.11
CC1CC(Nc2ccccc2)c2ccccc2N1 (stereo not shown) | -3.79
O=C(c1ccccc1)c1cccn1CC(=O)N1CCOCC1 | -0.522
Oc1nc(SCc2ccccc2)nc2c1cnn2-c1ccccc1 | -3.35
OCC1CCCN(CC2CC=CCC2)C1 (stereo not shown) | -2.95
CCCCNC(=O)CSc1nc2nc(C)c(Cc3ccccc3Cl)c(C)n2n1 | 15.1
CCc1nc2c(sc3nc(C)cc(C)c32)c(=O)o1 | -1.11
CCN(CC)c1ccc(C2C(C#N)=C(C)N=C3CC(c4ccccc4)CC(O)=C32)cc1 (stereo not shown) | 1.01
COc1cc(CNC(C)(C)CO)cc(Br)c1OCc1ccc(Cl)cc1 | -1.96
CN1C(=O)CC(N2CCN(c3ccc(Cl)cc3)CC2)C1=O (stereo not shown) | 0.912
CCN(CC)c1ccc(NC(=O)C(C)C)c(C)c1 | 0.686
O=C(NC(c1ccccc1)c1ccccc1)c1ccc(Br)o1 | -5.26
CCOC(=O)N1CCN(C(=O)NC2(C(F)(F)F)Oc3ccccc3O2)CC1 | 5.11
Cc1cc(N2CCN(C)CC2)n2nc(C)c(-c3ccc(Cl)cc3)c2n1 | 2.35
Cc1ccc(C)c(OCc2nc3ccccc3[nH]2)c1 | 1.88
COc1ccc(/C=N/n2c(N(C(C)=O)C(C)=O)nc(-c3ccccc3)c2-c2ccccc2)cc1 | 2.79
COc1ccc(CCNC(=O)Nc2cn(CC(C)C)c(=O)c3ccccc23)cc1OC | -0.171
Cc1c(C(=O)NC2CC2)oc2c1-c1nn(Cc3cccc(Cl)c3)cc1CC2 | -0.0401
COc1cccc(OCCSc2nc3c(N)ncnc3[nH]2)c1 | -7.94
COc1ccc(C2=N/C(=C/C=C/c3ccccc3)C(=O)O2)cc1Br | 3.42
CCC(=O)NC(Cc1ccccc1)c1ccc2c(c1)OCCCO2 (stereo not shown) | 0.475
COc1ccccc1-c1ccc(C(=O)N[C@@H](CC(C)C)C(=O)NCC#N)cn1 | -0.207

Reference: paper PMC6919601, “Identification of Plasmodium dipeptidyl aminopeptidase allosteric inhibitors by high throughput screening” (PLoS ONE, 2019)
